Experimental data: the supplement of paper PMC3334620
The full ranking holds about 33,000 sequences; the median of “E-score (-0.5 to 0.5)” is about -0.01, and the highest 2% start at about 0.26. The list shows a part of the results.

target: Ste12 (UniProt P13574); experiment: PBM E-score (8-mer binding enrichment) (E-score (-0.5 to 0.5)); higher = stronger / more preferred TF binding; most listed sequences are background and not binding sites; conditions: protein concentration: 200 nM; construct: GST-DNA-binding domain
Description: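 Universal 'all 10-mer' protein binding microarrays (Agilent AMADID 015681) probed with GST-tagged S. cerevisiae TFs (full-length or DBD) made by in vitro transcription/translation (PURExpress), about 100-200 nM. Bound TF was detected with fluorescent anti-GST. Each ungapped 8-mer (which stands for itself and its reverse complement) is scored by the PBM enrichment score (E-score), a modified Wilcoxon-Mann-Whitney statistic from -0.5 to +0.5, computed with the Universal PBM Analysis Suite. Scale: above 0.35 generally sequence-specific binding.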

Sequence | PBM E-score
TACCGCTA | -0.0086
CGTGTGGA | -0.0738
AGAACCGC | 0.0751
AGACACTC | -0.0744
CAAATAAG | 0.0883
AGTAACTA | 0.116
CGTTATAC | -0.201
CCTCGGCC | -0.0272
ACACCCAC | 0.102
TAAGGGAA | 0.0806
CATCCGGC | -0.014
TTAAAGAA | 0.251
ATTAGATG | 0.206
CATTCAAC | -0.0546
CCGAGTAC | -0.126
CCTATAAC | 0.0184
TACGGCGA | 0.0254
GTACAATA | -0.0746
AGAGCATC | -0.148
GGCGGCGA | 0.0676
CAGGGCAA | 0.106
AGTCAACA | 0.0619
AAGTCGTA | -0.129
ATATATCG | 0.21
GGGGGCAA | -0.0188

Sequence | PBM E-score
ACTCCCTG | 0.0877
CAGACCTC | -0.21
TGAATACA | 0.119
CATCAAGA | -0.101
AACGTAAC | 0.201
AAAAGTCT | 0.158
CAAAATAG | -0.0251
AGCATGGA | -0.103
AGCGACAG | 0.0949
CGCAGAGA | -0.141
GGTGAAAA | 0.0914
AATAAATA | 0.21
AGCGACTC | -0.245
GTGGTGTA | -0.00016
GCTAGTCA | -0.214
CCCAAGAG | -0.164
AGGGCACC | -0.197
AGAAGCCG | 0.0203
AGCTCCTG | -0.121
AATAAAGG | -0.0048
TGAGTTAA | 0.0764
ACAACAAT | 0.177
ATGCAGTC | -0.108
GATCTCCC | -0.17
GGCGCTCA | -0.066

Sequence | PBM E-score
CTAACAGA | 0.153
CACCCGAG | 0.0483
ACTTGGCT | -0.163
AGCTATTC | -0.125
ATGCACGG | -0.0972
CCCACGGC | -0.18
GAAAGAGC | -0.0336
CCCAAACG | 0.0986
GAATATGA | 0.107
AGGGTCTA | -0.242
GCAGGCCA | -0.0982
CTTTTACA | 0.269
CATTAGTC | -0.0812
ACCGTTGG | -0.188
ACATGAGG | 0.0743
ACGGCGCA | -0.0878
CGAAAGAC | -0.0474
GGTGTAAC | 0.0791
ATCCCACA | 0.00176
ACGGGGTC | -0.00112
ATTCAGCC | -0.109
ATGATGAG | 0.0835
CAGCACGC | -0.164
CGCACCCA | 0.172
GTCTACTA | -0.134

Sequence | PBM E-score
ACAACGGC | -0.0667
CCAGGATA | 0.183
CATGCGGA | -0.138
AGTGCACC | 0.0145
ACACACAG | 0.123
ACGTTATA | 0.122
AAGGGAGG | -0.0233
AAGGCGGA | 0.029
CGTCGACG | -0.124
GTAGTTGA | 0.119
ACAACCCA | 0.118
AGTGCATC | -0.154
CGAGGTAG | -0.219
AACCTGAG | 0.158
CTCAACGC | -0.0089
AAATGACG | 0.132
GCACCTCA | -0.0873
CATCTTAA | 0.117
CGCTTCAG | 0.0977
AAAAAACG | 0.269
CAGATTCC | -0.0757
CGCTAATC | 0.0537
CCGTTAGC | -0.121
AACCTCCC | 0.0949
CGGTGATA | 0.104

Sequence | PBM E-score
GGAATTTA | -0.0537
AAGCAACT | -0.142
CTATCGCC | -0.142
GCGGATGA | 0.112
ACCAATCT | 0.068
CTGATGAC | -0.0999
AGGCGTTG | 0.0579
ACACCTCC | -0.226
GTGGATCA | -0.109
ATACAATA | 0.0662
ACCCTCGC | -0.0273
CATGAGAG | 0.025
GTAGGGCA | -0.204
ATCCCTTG | -0.0717
CAAGGAAG | -0.0844
GAGATACC | -0.128
GATGTCCA | -0.0339
TGAGTGAA | 0.0936
CTTGTATC | 0.112
GCCGGACC | -0.0631
ATCAGAAG | 0.0364
AGGCAGCG | -0.209
CACCTCAC | -0.0515
AGTAGTTG | 0.0408
CTGACCTC | -0.0377

Sequence | PBM E-score
TACCGCGA | 0.00553
GTGAAAGA | 0.031
AAATCGTG | 0.0961
ACCTAAAT | 0.11
CACGGATC | -0.133
GAACCAGC | 0.027
ATAGTGTG | 0.0404
GCACCTGC | -0.162
CTAACTTA | 0.0403
GGATAGCA | 0.0639
CTTCCTAC | -0.182
CTGTTAGA | 0.0136
GGTCAGGA | 0.00191
GGGTCTAC | -0.171
TACGGAAA | 0.0853
CGTGCCCA | -0.0282
CACGGCAA | 0.158
CACAGGGC | -0.2
AACATCAG | 0.182
ATCTCAGC | -0.112
AAAGCCAT | -0.0948
CGCATTCC | -0.208
AAATGGTC | -0.0895
TACCGACA | 0.0133
ATCGTTTG | 0.0575

Sequence | PBM E-score
AATGATAG | 0.194
GCCAAAGC | -0.0442
GACTACAC | -0.0845
GTGAGTGA | 0.0323
ACCCTAAC | 0.119
ACTAAGCG | -0.0935
ATCGCAGA | -0.0897
ATTCTAGA | 0.132
ACGTCGTA | -0.252
ACGAGTGG | -0.155
AGTGATTG | 0.0425
CCGGTGGA | 0.0386
CCACGGCG | -0.0408
TGGCCCAA | -0.0405
GCAAGACA | -0.0585
GTTAATAA | 0.0895
CTGTCGAC | -0.15
CCACTCTC | -0.177
CCGACCAA | -0.0718
GGGCAGCA | -0.0741
AGGCTCGA | -0.126
ACAGTCGC | -0.131
